{"source": "the BET-seq Pho4 binding data (Le et al. 2018)", "note": "The list shows a part of the results. The energies were worked out here from pooled read counts, against the library average; single values are noisy.", "data": [{"target": "T1, Pho4 (S. cerevisiae) (UniProt P07270)", "T1 sequence": "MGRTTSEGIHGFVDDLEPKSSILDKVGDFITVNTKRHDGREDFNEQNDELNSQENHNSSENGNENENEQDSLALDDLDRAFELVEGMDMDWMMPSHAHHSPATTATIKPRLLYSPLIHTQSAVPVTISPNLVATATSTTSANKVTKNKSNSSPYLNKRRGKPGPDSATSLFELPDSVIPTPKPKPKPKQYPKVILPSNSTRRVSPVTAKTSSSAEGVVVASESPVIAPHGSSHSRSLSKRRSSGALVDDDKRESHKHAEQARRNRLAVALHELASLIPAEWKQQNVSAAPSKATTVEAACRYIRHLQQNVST", "assay": "relative binding free energy (BET-seq); higher = weaker binding", "conditions": "reference: library average", "units": {"relative binding free energy": "kcal/mol"}, "values": [{"sequence": "CTGTGCACGTGGGTGG", "relative binding free energy": -0.23}, {"sequence": "GGTTTCACGTGTTCGT", "relative binding free energy": 0.36}, {"sequence": "TTGGTCACGTGGTCCG", "relative binding free energy": -0.01}, {"sequence": "TTTATCACGTGGAAGT", "relative binding free energy": 0.2}, {"sequence": "TGGTGCACGTGACTGT", "relative binding free energy": 0.03}, {"sequence": "GCAGTCACGTGGGTGG", "relative binding free energy": -0.1}, {"sequence": "ATGTGCACGTGATTGA", "relative binding free energy": 0.05}, {"sequence": "AAATTCACGTGGGCAT", "relative binding free energy": 0.32}, {"sequence": "TATGGCACGTGCTTAG", "relative binding free energy": -0.24}, {"sequence": "AGGAACACGTGAAAGG", "relative binding free energy": 0.28}, {"sequence": "GTTATCACGTGTATTA", "relative binding free energy": 0.3}, {"sequence": "TCAGTCACGTGTCGTT", "relative binding free energy": 0.16}, {"sequence": "CGGTGCACGTGGTTGA", "relative binding free energy": -0.11}, {"sequence": "GATGTCACGTGATTCT", "relative binding free energy": 0.42}, {"sequence": "GTATTCACGTGTGGGG", "relative binding free energy": 0.33}, {"sequence": "GTCGGCACGTGTGCGT", "relative binding free energy": -0.03}, {"sequence": "AAAGGCACGTGGGCTT", "relative binding free energy": -0.19}, {"sequence": "ATGTTCACGTGTTTCT", "relative binding free energy": 0.22}, {"sequence": "CGAGACACGTGGAGGT", "relative binding free energy": 0.06}, {"sequence": "TCGGACACGTGGGTGC", "relative binding free energy": -0.2}, {"sequence": "TTGTTCACGTGCGGGT", "relative binding free energy": 0.19}, {"sequence": "AAAGACACGTGGGGTC", "relative binding free energy": -0.04}, {"sequence": "GGTATCACGTGGATGT", "relative binding free energy": 0.21}, {"sequence": "GGTTTCACGTGTCTAT", "relative binding free energy": 0.23}, {"sequence": "GTCTACACGTGATGGT", "relative binding free energy": 0.34}, {"sequence": "AGGGACACGTGGCTAT", "relative binding free energy": 0.05}, {"sequence": "TGTAACACGTGTGTGT", "relative binding free energy": -0.03}, {"sequence": "TGATTCACGTGATAGG", "relative binding free energy": 0.34}, {"sequence": "TGTGGCACGTGACTGC", "relative binding free energy": -0.11}, {"sequence": "GGGTACACGTGTTGGG", "relative binding free energy": 0.13}, {"sequence": "TATGTCACGTGATTCG", "relative binding free energy": 0.13}, {"sequence": "ATAAACACGTGCTGGT", "relative binding free energy": 0.05}, {"sequence": "TAAGACACGTGGAGTT", "relative binding free energy": 0.09}, {"sequence": "AATAGCACGTGGGAGG", "relative binding free energy": -0.22}, {"sequence": "TGCGGCACGTGGATGG", "relative binding free energy": -0.03}, {"sequence": "CGGATCACGTGATTGT", "relative binding free energy": 0.35}, {"sequence": "TCTGTCACGTGGGCTG", "relative binding free energy": -0.03}, {"sequence": "GGATGCACGTGGAGTG", "relative binding free energy": -0.09}, {"sequence": "TGAGTCACGTGTAGCT", "relative binding free energy": 0.27}, {"sequence": "CTGCGCACGTGGGGGG", "relative binding free energy": -0.32}, {"sequence": "GGGGGCACGTGCGTCG", "relative binding free energy": -0.24}, {"sequence": "TCTGCCACGTGGTTGG", "relative binding free energy": -0.17}, {"sequence": "AGGAACACGTGAAGGG", "relative binding free energy": 0.25}, {"sequence": "TGGTACACGTGGTGAC", "relative binding free energy": 0.01}, {"sequence": "AGAGCCACGTGGGTTT", "relative binding free energy": -0.17}, {"sequence": "ATGTTCACGTGATATA", "relative binding free energy": 0.23}, {"sequence": "GTCTACACGTGAGATT", "relative binding free energy": 0.48}, {"sequence": "AGAATCACGTGAAGTA", "relative binding free energy": 0.54}, {"sequence": "GTGTGCACGTGAATCA", "relative binding free energy": 0.38}, {"sequence": "AGGAGCACGTGGTTTA", "relative binding free energy": -0.14}, {"sequence": "GGGGTCACGTGAATTG", "relative binding free energy": 0.26}, {"sequence": "GGGGTCACGTGAATGC", "relative binding free energy": 0.39}, {"sequence": "TTGTCCACGTGTTCGG", "relative binding free energy": 0.15}, {"sequence": "GGTTGCACGTGCGATA", "relative binding free energy": -0.06}, {"sequence": "GCGTGCACGTGAAGTG", "relative binding free energy": 0.19}, {"sequence": "AGTGGCACGTGTTAAA", "relative binding free energy": -0.13}, {"sequence": "TGGACCACGTGAGGAG", "relative binding free energy": 0.28}, {"sequence": "TAGTTCACGTGGGATT", "relative binding free energy": 0.29}, {"sequence": "GTGATCACGTGTTGAA", "relative binding free energy": 0.18}, {"sequence": "TGGAGCACGTGAGTTT", "relative binding free energy": 0.14}, {"sequence": "GGAATCACGTGGGGTC", "relative binding free energy": 0.11}, {"sequence": "AGGCGCACGTGTGACG", "relative binding free energy": 0.01}, {"sequence": "AATAGCACGTGTCTTG", "relative binding free energy": -0.01}, {"sequence": "GTGTACACGTGTGGTA", "relative binding free energy": 0.08}, {"sequence": "TTACGCACGTGAATGT", "relative binding free energy": 0.1}, {"sequence": "TGGCACACGTGATTGA", "relative binding free energy": 0.32}, {"sequence": "GTTATCACGTGATTTA", "relative binding free energy": 0.26}, {"sequence": "TCGGACACGTGCGTGG", "relative binding free energy": -0.02}, {"sequence": "TAGTCCACGTGGGCAG", "relative binding free energy": 0.06}, {"sequence": "ACAGGCACGTGGATTT", "relative binding free energy": 0.03}, {"sequence": "CGATTCACGTGGGTTT", "relative binding free energy": 0.23}, {"sequence": "GTGTCCACGTGGCGTA", "relative binding free energy": 0.06}, {"sequence": "TGTGGCACGTGCGCGG", "relative binding free energy": -0.24}, {"sequence": "CGGGTCACGTGTGATG", "relative binding free energy": 0.11}, {"sequence": "CAGTGCACGTGGATGA", "relative binding free energy": 0.16}, {"sequence": "GGCGGCACGTGGTACG", "relative binding free energy": -0.06}, {"sequence": "TGGCACACGTGGTGAG", "relative binding free energy": -0.18}, {"sequence": "GTTCGCACGTGTTTCG", "relative binding free energy": 0.13}, {"sequence": "GCGGTCACGTGGGTGT", "relative binding free energy": -0.02}, {"sequence": "GTGGTCACGTGTTAGC", "relative binding free energy": 0.17}, {"sequence": "TACGCCACGTGGGTGT", "relative binding free energy": -0.21}, {"sequence": "TCGGCCACGTGTGTGG", "relative binding free energy": -0.18}, {"sequence": "ATGTACACGTGTAAGG", "relative binding free energy": 0.09}, {"sequence": "TGAGGCACGTGGTAGT", "relative binding free energy": -0.09}, {"sequence": "GTAGTCACGTGGTCTG", "relative binding free energy": 0.08}, {"sequence": "GTTGGCACGTGTTCGC", "relative binding free energy": 0.02}, {"sequence": "GTTAACACGTGGTTGG", "relative binding free energy": 0.02}, {"sequence": "TTGGCCACGTGTGAAG", "relative binding free energy": 0.07}, {"sequence": "GGAATCACGTGGTTTA", "relative binding free energy": 0.13}, {"sequence": "CTTTCCACGTGTTGTG", "relative binding free energy": -0.01}, {"sequence": "AATTGCACGTGTGCGT", "relative binding free energy": -0.02}, {"sequence": "TGGGGCACGTGGAGGC", "relative binding free energy": -0.14}, {"sequence": "ATGTTCACGTGGCGCT", "relative binding free energy": 0.07}, {"sequence": "AGTCTCACGTGGGGGC", "relative binding free energy": 0.09}, {"sequence": "GTTTGCACGTGTATTA", "relative binding free energy": 0.14}, {"sequence": "ATAATCACGTGGCGGT", "relative binding free energy": 0.21}, {"sequence": "GGTGCCACGTGGGAGG", "relative binding free energy": -0.28}, {"sequence": "GGGAACACGTGGGGGT", "relative binding free energy": -0.06}, {"sequence": "TTAGACACGTGAGTGC", "relative binding free energy": 0.25}, {"sequence": "AGTATCACGTGTTCAG", "relative binding free energy": 0.13}, {"sequence": "GTTTCCACGTGTCGGT", "relative binding free energy": 0.23}, {"sequence": "TTTTACACGTGATGTG", "relative binding free energy": 0.24}, {"sequence": "AGGTTCACGTGGTAAT", "relative binding free energy": 0.29}, {"sequence": "TTCGTCACGTGGTAAA", "relative binding free energy": 0.07}, {"sequence": "GTATTCACGTGCTGTT", "relative binding free energy": 0.28}, {"sequence": "GGGTTCACGTGCGGAA", "relative binding free energy": 0.14}, {"sequence": "AGGTGCACGTGTAATC", "relative binding free energy": 0.21}, {"sequence": "TTATGCACGTGCGCAT", "relative binding free energy": -0.07}, {"sequence": "ACTTTCACGTGATATG", "relative binding free energy": 0.18}, {"sequence": "GGTGTCACGTGCGGAT", "relative binding free energy": 0.02}, {"sequence": "GTTCTCACGTGCGGGT", "relative binding free energy": 0.19}, {"sequence": "GTATTCACGTGTGGCG", "relative binding free energy": 0.3}, {"sequence": "ATTCGCACGTGGATGT", "relative binding free energy": -0.23}, {"sequence": "AAATGCACGTGGAGGG", "relative binding free energy": -0.06}, {"sequence": "TGTGTCACGTGACAAT", "relative binding free energy": 0.19}]}]}
